How the values were obtained:
[1] = Acute DSS colitis model in mice, body weight; assay type: in vivo, C57BL/6 mice
Description: Dextran sulfate sodium (DSS) is the most commonly used model of Ulcerative Colitis (UC). In this model, DSS is a chemical irritant that is added to drinking water to induce acute disease that resembles UC. The acute phase of DSS colitis is characterized by the recruitment of neutrophils to the mucosa and submucosa, and increased expression of ELR+ CXC chemokines. However, chronic exposure to DSS causes severe gut damage and significant weight loss, which is not suitable in a colitis model. To accommodate the acute nature of this model, Antibody 1 was used in a prophylactic manner to test its ability to inhibit the recruitment of neutrophils and the development of colitis.
C57BL/6 mice, 8-10 wks old, weighing 18-22 g, are obtained. Blood is collected by cardiac puncture and analyzed to establish a baseline. To induce colitis, mice receive 2.5% DSS (MW=36,000-50,000) in the drinking water for 5 days (Days 1-5) followed by 6 days of no DSS water (reflecting acute inflammation). Control healthy mice receive water only (“no DSS” group). Mice receiving DSS are dosed by subcutaneous injection on Day 0, 2, 4, and 8 with human IgG4 control antibody (25 mg/kg) or Antibody 1 (25 mg/kg). Body weight is recorded daily. The number of mice used for each treatment is 9 (except 5 healthy mice are used in the healthy “no DSS” group.) The study is performed in quadruplicate.

human CXCL1 = target: T1, human CXCL1 (Homo sapiens, UniProt P09341); assay: FLIPR neutralization using HMEC cells expressing human CXCR2, CXCL1; assay type: cell-based; details: CXCL1 10 nM; HMEC-huCXCR2 FLIPR
T1 sequence (P09341 35-107): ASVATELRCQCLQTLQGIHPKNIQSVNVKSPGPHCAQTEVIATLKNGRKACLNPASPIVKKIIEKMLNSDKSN
From the text: Since all of the ELR+ CXC chemokines can bind CXCR2 receptor, cells expressing CXCR2 were selected for in vitro studies. HMEC-huCXCR2 is an immortalized human endothelial cell line transduced with retrovirus for expression of human CXCR2 receptor. HMEC cells expressing human CXCR2 are able to induce intracellular Ca^2+ influx in response to human, cynomolgus monkey, rat, and mouse ELR+CXC chemokines. Intracellular Ca^2+ influx can be detected by a Fluorescent Imagine £late Reader (FLIPR). Chemokine neutralization should therefore also neutralize intracellular Ca^2+ influx induced by these chemokines.
HMEC-huCXCR2 is maintained in MCDB 31 medium supplemented with 10% fetal bovine serum, 2× GlutaMax, 1× non-essential amino acids, 1 μg/mL hydrocortisone, 10 ng/mL human Epidermal Growth Factor, and 0.4 μg/mL puromycin at 37° C. in 5% CO2. […] A cell plate and a ligand-antibody plate are loaded into a Fluorescent Imagine Plate Reader (FLIPR-3, Molecular Devices) programmed to transfer 50 μL of ligand-antibody to wells of the cell plate. Fluorescence is recorded every second for 90 seconds. The change in fluorescence (DRFU) is calculated from images 10 to 90. DRFU versus log (antibody concentration) is plotted and IC50 values are determined by nonlinear regression using Graph Pad Prism. […] Data are expressed as the mean of replicates. […]

IC50 (human CXCL1): 0.867 (±0.153) ug/mL
B1: Antibody 1: antibody with heavy chain SEQ ID NO: 1 and light chain SEQ ID NO: 3, expressed in NSO cells (antibody)
heavy: QVQLVQSGAEVKKPGASVKVSCKASGYEFTSYWIHWVRQAPGQGLEWMGNISPNSGSANYNEKFKSRVTMTRDTSTSTVYMELSSLRSEDTAVYYCAREGPYSYYPSREYYGSDLWGQGTLVTVSSASTKGPSVFPLAPCSRSTSESTAALGCLVKDYFPEPVTVSWNSGALTSGVHTFPAVLQSSGLYSLSSVVTVPSSSLGTKTYTCNVDHKPSNTKVDKRV[human IgG4 Fc with S228P (EU numbers) not spelt out]
light: EIVLTQSPATLSLSPGERATLSCRASQSISNNLHWYQQKPGQAPRLLIYYTSRSVSGIPARFSGSGSGTDFTLTISSLEPEDFAVYYCGQNNEWPEVFGGGTKVEIKRTVAAPSVFIFPPSDEQLKSGTASVVCLLNNFYPREAKVQWKVDNALQSGNSQESVTEQDSKDSTYSLSSTLTLSKADYEKHKVYACEVTHQGLSSPVTKSFNRGEC
% of Initial Body Weight ([1]; Day 1, 25 mg/kg subcutaneous): 100.0%
% of Initial Body Weight ([1]; Day 2, 25 mg/kg subcutaneous): 102.9%
% of Initial Body Weight ([1]; Day 3, 25 mg/kg subcutaneous): 101.4%
% of Initial Body Weight ([1]; Day 4, 25 mg/kg subcutaneous): 100.9%
% of Initial Body Weight ([1]; Day 5, 25 mg/kg subcutaneous): 96.9%
% of Initial Body Weight ([1]; Day 9, 25 mg/kg subcutaneous): 93.5%
% of Initial Body Weight ([1]; Day 10, 25 mg/kg subcutaneous): 93.6%
% of Initial Body Weight ([1]; Day 11, 25 mg/kg subcutaneous): 97.0%
